Results: ChEMBL document CHEMBL1201862, “PubChem BioAssay data set” (2004)
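Dose response: 5 concentrations. Exposure: 48 h. Format: 96-well plates. Endpoint: linear interpolation; highest concentration if not reached. Here, GI50 denotes the concentration required for 50% inhibition of growth.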 Active and inactive are the calls of the source. Rule as the data show it: active = GI50 up to about 1.1 µM and inactive = higher.

test system: NCI-H322M; experiment: growth of human tumour cells (NCI), 48 h

Row | Compound | GI50
1 | CN1CCN(CCCCNc2cc3c4ccccc4c(NCCCCN4CCN(C)CC4)cc3c3ccccc23)CC1 | inactive: 4.75 µM
2 | COc1ccc2nc3c4c(nccc4c2c1)-c1ncccc1C3=O | active: 0.0424 µM
3 | O=C(O)c1nn(-c2ccccc2)nc1-c1nn(-c2ccccc2)nc1C(=O)O | inactive: > 100 µM
4 | CC(CCC(=O)O)(c1ccc(O)cc1)c1ccc(O)cc1 | inactive: > 100 µM
5 | COc1ccc(OC)c(-c2cc(O)c3cc4c(cc3n2)OCO4)c1 | inactive: 4.8 µM
6 | CC(=O)NC1=C(OS(=O)(=O)c2ccc(C)cc2)CN(C)C1=O | inactive: 15.6 µM
7 | O=C1/C(=C/c2ccccc2)CCCC/C1=C\c1ccccc1 | inactive: > 100 µM
8 | Cc1ccc(-c2nc(-c3nccc4ccccc34)oc2-c2ccccc2)cc1 | inactive: 21.3 µM
9 | Cc1cc(O)c2cc3c(O)c(O)ccc3cc2c1 | inactive: 3.84 µM
10 | O=C(Nc1ccc2ccccc2c1)Nn1cnnc1 | inactive: > 100 µM
11 | COc1cc2c[n+](C)c3c4cc(OC)c(OCc5ccccc5)cc4c(OCc4ccccc4)cc3c2cc1OC | inactive: 21.6 µM
12 | O=C(O)C1C(C(=O)O)C(C(=O)O)C1C(=O)O (stereo not given) | inactive: > 100 µM
13 | Nc1nc(S)nc(C(=O)Nc2nccs2)c1-c1ccccc1 | inactive: > 100 µM
14 | CC1(C)CC(=O)C(CCC(=O)/C=C/c2ccccc2)C(=O)C1 | inactive: > 100 µM
15 | CC(C)(C)OC(=O)N/C=C1\C(=O)Oc2ccccc2C1=O | inactive: 35.1 µM
16 | O=c1[nH]c2cc(C(F)(F)F)ccc2nc1CBr | inactive: 16.3 µM
17 | CN(CCO)c1nc(=O)c2c([nH]1)CCC2 | inactive: > 100 µM
18 | COC(=O)C1CC/C(=N/c2ccc(C)cc2C)N1 (stereo not given) | inactive: > 100 µM
19 | COc1cc2c(cc1OC)C(=O)/C(=C/c1cc(OC)c(OC)c(OC)c1)C2 | inactive: > 100 µM
20 | COc1ccc([C@@]23OC[C@@H]4[C@@H](OC[C@@H]42)c2cc(OC)c(OC)cc23)cc1OC | inactive: > 100 µM
21 | N=C(N)NS(=O)(=O)c1ccc(NNC(=O)c2cccc3c(O)c4ccccc4nc23)cc1 | inactive: 22.2 µM
22 | CN(C(=O)c1ccc(Cl)cc1)C(=S)N1CCN(c2ccccn2)CC1 | inactive: > 100 µM

Row | Compound | GI50
23 | CCCCCCCCCCCCCCCC(=O)OCCOCCOCCOCCOCCOC(=O)CCCCCCCCCCCCCCC | inactive: > 100 µM
24 | Cc1c(Cl)ccc2c1NC(=O)C2(O)CC(=O)c1ccc2ccccc2c1 (stereo not given) | inactive: 79.1 µM
25 | O=C(/C=C/CC(O)(c1ccccc1)c1ccccc1)Nc1ccccc1Cl | inactive: > 100 µM
26 | CC1=CC[C@@]2(CO)[C@@H]([C@@H]1C)[C@H]1CC[C@@H]3[C@@]4(C)CC[C@H](O)C(C)(C)[C@@H]4CC[C@@]3(C)[C@]1(C)C[C@@H]2O | inactive: 38.4 µM
27 | OCCCNCC(O)c1ccc(OCc2ccccc2)c(OCc2ccccc2)c1 (stereo not given) | inactive: 13.4 µM
28 | COc1ccc(NC(=S)N/N=C\c2ccc(NC(C)=O)cc2)cc1 | inactive: > 100 µM
29 | C=C(C)OCOCCOC | inactive: > 100 µM
30 | Cn1ccnc1CCc1ccc(Cl)c(Cl)c1 | inactive: > 100 µM
31 | COC1=C(C)C(=O)c2c(c(COC(N)=O)c3n2CC(OC(C)=O)C3OC(C)=O)C1=O (stereo not given) | inactive: 1.19 µM
32 | Clc1ccc(/C=C/c2nc(-c3ccccc3)cn3c2nc2ccccc23)cc1Cl | inactive: > 100 µM
33 | C/C(=C1/N=C(c2ccccc2)OC1=O)c1ccc(C)cc1 | inactive: 46.7 µM
34 | CC1=NN(C(=O)c2ccccc2O)C(c2ccccc2Cl)C1C(=O)Nc1ccccc1 (stereo not given) | active: 0.542 µM
35 | COc1nc(C)nc2c1ncn2Cc1ccccc1 | inactive: > 100 µM
36 | CC(NC(=O)C1(N)CCCC1)C(=O)O (stereo not given) | inactive: > 100 µM
37 | O=[N+]([O-])c1cc2ccc1OCc1cccc(n1)COc1ccc(cc1[N+](=O)[O-])/C=N\CCCCCCCC/N=C\2 | inactive: > 100 µM
38 | COc1cccc(N2C(=O)C3c4[nH]c5ccccc5c4C4CCCC4C3C2=O)c1 (stereo not given) | inactive: > 10 µM
39 | Cc1ccc2c(ccc3c[n+]4ccccc4c(C)c32)c1.[O-][Cl+3]([O-])([O-])[O-] | inactive: 5.19 µM
40 | Cc1cc(N(CCC#N)CCC#N)ccc1/C=C(\NC(=O)/C=C/c1ccccc1)C(=O)NN | inactive: > 93.3 µM
41 | O=C1C2=C(SCCS2)C(=O)c2c(Sc3ccc(Cl)cc3)c(Sc3ccc(Cl)cc3)c(Sc3ccc(Cl)cc3)c(Sc3ccc(Cl)cc3)c21 | inactive: > 100 µM
42 | COc1ccc2ccccc2c1C1=NC(C)(C)CO1 | inactive: > 100 µM
43 | NNC(=O)CCCCCCCC(=O)O | inactive: > 100 µM
44 | CCCCCCCCCCc1c2nc(c(CCCCCCCCCC)c3ccc([nH]3)c(CCCCCCCCCC)c3nc(c(CCCCCCCCCC)c4ccc1[nH]4)C=C3)C=C2 | inactive: > 100 µM

Row | Compound | GI50
45 | CC(=O)/N=C1\NC(=O)/C(=C/c2ccc(/C=C3/C(=O)N/C(=N\C(C)=O)N3C)cc2)N1C | inactive: > 100 µM
46 | C/C(=N\NC(=O)CC#N)C(CN1CCCCC1)C(c1ccccc1)c1c(O)c2ccccc2oc1=O (stereo not given) | inactive: 65 µM
47 | COc1ccc(-c2oc(/C=N/c3ccccc3)c([N+](=O)[O-])c2-c2ccc(OC)c(OC)c2)cc1OC | inactive: > 100 µM
48 | O=C(Nc1nnc(S)[nH]1)C(=O)C(C(=O)c1ccc2ccccc2c1)C1OC(=O)c2ccccc21 (stereo not given) | inactive: 17.7 µM
49 | CCCCN(CCCC)CC(C(=O)Nc1ccc([N+](=O)[O-])cc1[N+](=O)[O-])/C(C)=N\NC(=S)NN (stereo not given) | inactive: > 100 µM
50 | CCOC(=O)C(Cc1ccc(N(CCCl)CCCl)cc1)NC(=O)C(Cc1ccccc1)NC(C)=O (stereo not given) | active: > 0.351 µM
51 | Nc1nc(Cl)cc(NCC2(CO)CC(=O)C2)n1 | inactive: > 100 µM
52 | CC(C)N1[C@@H]2CCCC[C@H]2N(C(C)C)[PH]1=O | inactive: > 100 µM
53 | CCOC(=O)c1cn(Cc2ccccc2)c(=O)n1Cc1ccccc1 | inactive: > 100 µM
54 | CC(=O)NC1C(OCc2ccccc2)OC(CO)C(O)C1OC(C)C(=O)NC(C(=O)NC(CCC(=O)Nc1ccc2c(c1)CN1C(=O)c3ccccc3C1=N2)C(N)=O)C(C)C (stereo not given) | inactive: > 100 µM
55 | Cc1cc(C)c2c(n1)S(=O)(=O)N(CCCN1CCN(c3cccc(C(F)(F)F)c3)CC1)C(C(=O)c1ccc(Cl)cc1)=C2O | inactive: 4.47 µM
56 | CS(=O)(=O)OCCCOS(C)(=O)=O | inactive: > 100 µM
57 | Cc1nc2ccc(NC(=S)Nc3ccccc3)cc2c(=O)n1-c1ccccc1 | inactive: > 100 µM
58 | CCOC(=O)[C@H](Cc1ccccc1)NC(=O)c1nc[nH]c1[N+](=O)[O-] | inactive: > 100 µM
59 | CC(C(=O)c1ccc(Cl)cc1)C1OC(=O)C(Cl)=C1Cl (stereo not given) | inactive: > 100 µM
60 | O=C(O)[C@H]1NC[C@@H]2ON=C(Br)[C@@H]21 | inactive: > 100 µM
61 | COC(=O)CC(=O)OC1C[C@@H]2CCC3C(C)(C)CCC[C@]3(C)C23CC[C@@]1(C)C3 (stereo not given in full) | inactive: 19 µM
62 | C[C@]12CC[C@@H]3c4cc(C=O)c(OCc5ccccc5)cc4CC[C@H]3[C@@H]1CCC2OCc1ccccc1 (stereo not given in full) | inactive: > 100 µM
63 | CC1CCCCc2nc3c(c(=O)n21)CCCC3 (stereo not given) | inactive: > 100 µM
64 | CSc1c([S+](C)[O-])[nH]c2cc(Br)cc(Br)c12 (stereo not given) | inactive: 27.2 µM
65 | CC(=O)OC1(C)CC(C)C(=O)C(C(O)CC2CC(=O)NC(=O)C2)C1 (stereo not given) | active: 0.0128 µM
